As a reminder, the IC50 is the point on the concentration scale where inhibition reaches its midpoint. Low values mean greater potency, high ones weaker potency.

The target of the first assay is T1, NOTUM(81-451 Cys330Ser) (Homo sapiens, UniProt Q6P988, C330S).
T1 sequence (Q6P988 81-451 C330S): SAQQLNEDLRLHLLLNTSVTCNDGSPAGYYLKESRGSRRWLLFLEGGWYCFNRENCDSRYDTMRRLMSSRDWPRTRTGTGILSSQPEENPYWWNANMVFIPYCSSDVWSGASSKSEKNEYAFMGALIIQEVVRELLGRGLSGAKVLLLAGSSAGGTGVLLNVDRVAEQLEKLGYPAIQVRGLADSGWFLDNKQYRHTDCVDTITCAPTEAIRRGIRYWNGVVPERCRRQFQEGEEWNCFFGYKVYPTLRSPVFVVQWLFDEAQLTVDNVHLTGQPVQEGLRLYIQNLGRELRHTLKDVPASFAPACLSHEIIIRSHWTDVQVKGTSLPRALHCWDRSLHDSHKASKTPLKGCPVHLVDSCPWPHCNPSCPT
Experiment: not given
To be noted: NMe linker replacing O linker, cf. 34.
The compound `Cc1ccccc1N(C)CC(=O)Nc1ccc2cnn(C)c2c1` [Compound 53] returned a decrease in activity of 25 fold.

The assay is the same for the next values; noted with them: lipophilic ligand efficiency, NOTUM activity against clog P.
In turn, `Cc1ccccc1OCC(=O)Nc1ccc2cn(C(C)C)nc2c1` [Compound 38] returned an LLE of 3.5.

A further assay has as its target T1, NOTUM(81-451 Cys330Ser). Kind of assay: biochemical.
Conditions: not given
Compound `Cc1ccccc1OCC(=O)Nc1ccc2ccncc2c1` [Compound 46] came in with an IC50 of 0.97 µM.

In the case of `Cc1ccccc1OCC(=O)NCc1cccnc1` [Compound 25], the IC50 was found to be 100 µM.

In the case of `Cc1ccccc1NCC(=O)Nc1cccnc1` [Compound 4], the half-inhibitory concentration (IC50) came out at 60 µM.

Regarding `N#Cc1ccccc1OCC(=O)Nc1cccnc1` [Compound 11], the midpoint of inhibition, the IC50, lay at 120 µM.

In the case of `Cc1ccccc1N(C)CC(=O)Nc1cccnc1` [Compound 7], half-maximal inhibition (IC50) was put at 23 µM.

`Cc1cc(F)ccc1OCC(=O)Nc1cccnc1` [Compound 17] came in with a concentration for half-maximal inhibition (IC50) of 20 µM.

As to `Cc1ccccc1OCC(=O)N1CCc2ccccc2C1` [Compound 54], the IC50 came to 7.9 µM.

`Cc1ccccc1OCC(=O)Nc1ccc2cn(C(C)C)nc2c1` [Compound 38]: the midpoint of inhibition, the IC50, lay at 0.032 µM.

With `Cc1ccccc1SCC(=O)Nc1cccnc1` [Compound 5], the IC50 was 110 µM.

Take `Cc1ccccc1N(C)CC(=O)Nc1ccc2cnn(C)c2c1` [Compound 53]: the IC50 worked out at 5.7 µM.

(Values after article PMC6727465, “Discovery of 2-phenoxyacetamides as inhibitors of the Wnt-depalmitoleating enzyme NOTUM from an X-ray fragment screen” (MedChemComm, 2019).)
